From the antibiotic and cytotoxicity screens of Wong et al. (2023)
The list shows a part of the results.

How the values were obtained:
[1] = test system: HSkMC (human skeletal muscle cells); test: cytotoxicity call (relative viability < 0.9); details: 10 µM
[2] = test system: HepG2; test: cytotoxicity call (relative viability < 0.9); details: 10 µM
[3] = test system: S. aureus RN4220; test: growth inhibition call (relative growth <= 0.2); details: 50 µM

Structure (SMILES)	cytotoxicity call [1]	cytotoxicity call [2]	growth inhibition call [3]
C[C@H](CO)N1C[C@H](C)[C@H](CN(C)C(=O)CCCN(C)C)OCc2cnnn2CCCC1=O	inactive	inactive	inactive
Cn1cnc(S(=O)(=O)N2C[C@H](O)COC[C@H]3O[C@@H](CC(=O)NC4CCCC4)CC[C@@H]32)c1	inactive	inactive	inactive
C[C@@H]1CN([C@@H](C)CO)C(=O)c2cc(NC(=O)Nc3ccc(F)cc3)ccc2O[C@@H](C)CCCCO[C@H]1CN(C)CC1CCCCC1	inactive	active	inactive
CCOC(=O)c1cccc([C@@H]2CC(=O)N(C(=O)OCc3ccccc3)[C@@H]2C(=O)Nc2cccc3cccnc23)c1	inactive	inactive	inactive
C[C@@H]1CN([C@H](C)CO)C(=O)c2cc(NC(=O)Nc3ccc(C(F)(F)F)cc3)ccc2O[C@H]1CN(C)C(=O)Nc1cccc2ccccc12	inactive	active	inactive
COc1ccc(S(=O)(=O)N(C)C[C@H]2OCCCC[C@@H](C)Oc3ccc(NC(=O)Nc4ccc(C(F)(F)F)cc4)cc3C(=O)N([C@H](C)CO)C[C@H]2C)cc1	inactive	active	inactive
C[C@@H]1CCCCO[C@@H](CN(C)C(=O)Nc2cccc3ccccc23)[C@@H](C)CN([C@@H](C)CO)C(=O)c2cc(NC(=O)Nc3cccc4ccccc34)ccc2O1	inactive	inactive	inactive
C[C@H]1CN([C@@H](C)CO)C(=O)c2cc(NC(=O)Cc3cn(C)c4ccccc34)ccc2O[C@H]1CN(C)S(=O)(=O)c1cn(C)cn1	inactive	inactive	inactive
Cc1noc(C)c1NC(=O)N(C)C[C@@H]1Oc2c(NC(=O)C3CC3)cccc2C(=O)N([C@@H](C)CO)C[C@@H]1C	inactive	inactive	inactive
